Out of some 310,000 compounds screened, about 2,200 (0.71%) showed an effect of 50% or more. Effects have a minus sign here. Some of the results follow.
What follows are compounds tested against human ether-à-go-go-related gene (hERG) potassium channel (human, UniProt Q12809) (assay: primary screen, population patch clamp on CHO cells stably expressing hERG).
Chain of human ether-à-go-go-related gene (hERG) potassium channel (Q12809 whole entry, looked up): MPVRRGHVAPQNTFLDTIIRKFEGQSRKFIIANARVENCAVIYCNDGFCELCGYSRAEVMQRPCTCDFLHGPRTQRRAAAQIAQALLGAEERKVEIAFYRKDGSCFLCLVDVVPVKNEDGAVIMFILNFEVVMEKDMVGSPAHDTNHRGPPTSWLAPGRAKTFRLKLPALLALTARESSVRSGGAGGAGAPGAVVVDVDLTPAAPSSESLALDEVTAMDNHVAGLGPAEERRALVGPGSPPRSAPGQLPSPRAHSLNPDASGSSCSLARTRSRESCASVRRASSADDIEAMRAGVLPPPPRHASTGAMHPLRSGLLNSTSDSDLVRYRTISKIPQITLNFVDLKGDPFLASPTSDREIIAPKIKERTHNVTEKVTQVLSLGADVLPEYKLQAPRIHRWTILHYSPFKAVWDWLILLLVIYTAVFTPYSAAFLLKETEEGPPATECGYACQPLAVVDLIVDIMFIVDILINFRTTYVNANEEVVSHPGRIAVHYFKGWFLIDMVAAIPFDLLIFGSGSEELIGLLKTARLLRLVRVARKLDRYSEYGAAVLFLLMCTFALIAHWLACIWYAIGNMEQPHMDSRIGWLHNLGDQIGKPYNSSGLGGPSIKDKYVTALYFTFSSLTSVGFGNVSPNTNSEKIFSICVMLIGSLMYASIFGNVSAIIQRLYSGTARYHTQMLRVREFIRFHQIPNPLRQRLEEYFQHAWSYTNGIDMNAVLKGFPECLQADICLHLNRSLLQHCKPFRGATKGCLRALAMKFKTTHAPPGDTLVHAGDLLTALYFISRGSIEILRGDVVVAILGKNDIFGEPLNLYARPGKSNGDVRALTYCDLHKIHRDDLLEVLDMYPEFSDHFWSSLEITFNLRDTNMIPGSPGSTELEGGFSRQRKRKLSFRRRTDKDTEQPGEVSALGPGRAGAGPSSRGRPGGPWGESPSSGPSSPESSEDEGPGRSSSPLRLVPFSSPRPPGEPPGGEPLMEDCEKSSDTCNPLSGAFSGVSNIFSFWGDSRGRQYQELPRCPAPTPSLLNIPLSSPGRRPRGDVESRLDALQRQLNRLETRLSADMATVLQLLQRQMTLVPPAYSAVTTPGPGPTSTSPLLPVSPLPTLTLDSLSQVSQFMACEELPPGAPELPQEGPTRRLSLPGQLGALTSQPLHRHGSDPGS

Structure (SMILES)	hERG current change (%, negative = inhibition) at 1uM [%]
O=C1CSC(c2ccc([N+](=O)[O-])cc2)N1c1ccccc1 (centres unmarked)	-3.85
Fc1ccccc1OCCCCn1cncn1	0.0611
COCCN(C(=O)CNC(=O)c1ccco1)C(C(=O)NC1CCCC1)c1cccc(OC)c1 (centres unmarked)	11.3
CCOC(=O)c1cn2nc(Oc3ccccc3)ccc2n1	8.49
O=C(NNC(=O)C12CC3CC(CC(O)(C3)C1)C2)c1ccccc1O	11
CN(C(=O)COc1ccccc1)c1nnc(-c2cccnc2)s1	5.54
Cc1nnc(NC(=O)CSc2nnc(CNC(=O)c3ccccc3)o2)s1	11.5
Cc1ccc(SCC(=O)c2cc(C)c(O)c(C)c2)cc1	10.6
Cc1ccc(OCCCC(=O)Nc2cc(Cl)ccc2-n2cncn2)cc1	-0.277
COc1ccccc1NC(=O)C(C)Sc1nnnn1C (centres unmarked)	5.28
COCCn1c(-c2cc(OC)c(OC)c(OC)c2)nc2oc3ccccc3c(=O)c2c1=O	12.6
CC(=O)Nc1ccc(C(=O)N(C)C(C(=O)Nc2ccccc2)c2ccccn2)cc1 (centres unmarked)	2.69
CCCCNC(=O)CSc1nnc(-c2ccco2)n1C	4.89
COc1ccc(Cl)cc1C(=O)NNC(=O)c1cccnc1	7.2
N/C(Cc1ccc([N+](=O)[O-])cc1)=N\OC(=O)c1ccc([N+](=O)[O-])cc1	-56.7
CC(C)C(NC(=O)CN1C(=O)c2ccccc2C1=O)c1ccccc1 (centres unmarked)	10.1
CCOC(=O)C1CCN(c2cc3c(cc2NC(=O)c2ccccc2F)n(C)c(=O)n3C)CC1	11.4
CC(C)Oc1ccc(C(=O)Nc2c3c(nn2C(C)(C)C)CS(=O)(=O)C3)cc1	7.78
CCN(CC)S(=O)(=O)c1cccc(NC(=O)COC(=O)C2=COCCO2)c1	5.47

Structure (SMILES)	hERG current change (%, negative = inhibition) at 1uM [%]
COc1ccc(Cn2c(CCC(=O)Nc3ccc(C)cc3)nc3cccnc32)cc1	15.3
CCN(CC(=O)Nc1cc(S(=O)(=O)N2CCCCC2)ccc1Cl)Cc1ccccc1	11.6
COc1ccc(/C=C/C(=O)NCC2COc3ccccc3O2)cc1OC (centres unmarked)	6.43
O=C(CSc1nnc(NC(=O)C2CC2)s1)NCc1ccco1	-1.67
N#CCCn1cc(C(N)=O)c(-c2ccc3ccccc3c2)n1	12.9
COc1cccc(CC(=O)Nc2ccccc2C(=O)N2CCOCC2)c1	16
COc1ccc(NC(=O)CSc2nccn2-c2ccccc2)cc1	-4.16
Nc1c(C(=O)O)cnc2c(-c3ccc(Cl)cc3)cnn12	21.3
COc1ccc([C@H]2CC(=O)C=C(c3cccc(OCc4ccccc4)c3)C2)cc1	10.8
N#CC(C#N)=NNc1ccc(S(N)(=O)=O)cc1	7.93
CCCn1c2ccccc2c2cnn(CC(=O)NCCCN3C(C)CCCC3C)c(=O)c21 (centres unmarked)	5.92
O=C(C(=O)N1CCN(c2ccccc2F)CC1)c1c[nH]c2ccccc12	-0.856
CC(C(=O)Nc1ccc([N+](=O)[O-])cc1Cl)N1CCN(S(=O)(=O)c2cccs2)CC1 (centres unmarked)	4.33
CCOC(=O)c1[nH]c2ccccc2c1NC(=S)Nc1cc(C)ccc1C	3.97
CC(=O)C1=C(O)C(=O)N(CCc2c[nH]c3ccccc23)C1c1ccc(O)cc1 (centres unmarked)	8.53
O=C(OCc1cccc([N+](=O)[O-])c1)c1cccnc1	5.71
COc1ccc(NC(=O)C(Cc2cc(C)cc(C)c2)C(C)C(=O)O)cc1 (centres unmarked)	8.32
O=C(COc1coc(CN2CCN(c3ccccc3)CC2)cc1=O)NC1CCCCC1	-13
CC(C)OC(=O)c1cc2c(ccn2C)n1CC(=O)N(Cc1ccccc1)c1ccccc1	13

Structure (SMILES)	hERG current change (%, negative = inhibition) at 1uM [%]
CC1CCC/C(=N\NC(=O)COc2ccccc2Cl)C1 (centres unmarked)	7.24
COc1ccc(N(CC(=O)NCc2cccs2)S(=O)(=O)c2c(C)n[nH]c2C)cc1	6.6
COc1ccc(Cn2nnnc2CN2CCC(O)(c3ccc(F)cc3)CC2)cc1	8.9
CC(=O)c1cccc(NC(=O)Nc2c(C)nn(C)c2C)c1	12.3
COc1ccc(NC(=O)C2CCN(S(=O)(=O)c3c(C)nn(C)c3C)CC2)cc1	15.2
O=C(NCCc1ccccc1)C(=O)c1c(-c2ccccc2)[nH]c2ccccc12	3.02
Cc1ccc(S(=O)(=O)/C(C#N)=C/c2ccccc2OCc2ccccc2)cc1	4.91
CC(C)(C)c1cc(CCC(=O)NCCc2ccccn2)cc(C(C)(C)C)c1O	12.7
CCN(C(=O)CSc1cc(C)c2cccc(C)c2n1)C1CCS(=O)(=O)C1 (centres unmarked)	1.18
O=C(O)CCSCC(=O)c1ccc2c(c1)OCCO2	8.55
COc1ccc(NC(=O)CSc2nc3ccccc3c(=O)[nH]2)cc1S(N)(=O)=O	7.16
Fc1ccc(C2CC(c3ccco3)=NN2c2ccccc2)cc1 (centres unmarked)	8
Cc1cccc(-n2nnnc2SCC(=O)NCC2(N3CCOCC3)CCCCC2)c1C	-7.34
Nc1c(C(=O)Nc2ccc(Cl)cc2)oc2ccccc12	13.8
C/C(=N\NC(=S)Nc1c(C)cccc1C)c1ccc(O)cc1	15.6
COc1ccc(CNS(=O)(=O)c2cc(-c3cc(C)no3)ccc2C(C)C)cc1	14.8
O=C(Nc1ccc(N2CCCC2)cc1)c1cccc(Cl)c1	14.4
CCn1cc(C(=O)Nc2ccc(F)c(F)c2)cn1	7.49
